The text below walks through data of ChEMBL document CHEMBL1201862, “PubChem BioAssay data set” (2004).

Broadly, the GI50 is the concentration at which growth is held to half of that of the control.

Structures are written as SMILES.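 Values below derive from 48-hour exposures of cells grown in 96-well plates, with endpoints linearly interpolated between the two concentrations bracketing the appropriate inhibition level. At the GI50, growth is halved.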 Activity calls are given as the source filed them. No stated cut-off is given here; in the data, active = GI50 up to about 1.1 µM and inactive = higher. A value given as a limit tells only on which side of the number the result lay.

This assay deals with NCI-H322M. The experiment in a line: DTP human tumour cell line panel, 48 h.
For `O=C(NNS(=O)(=O)c1ccccc1)c1cccnc1`, the GI50 was inactive: > 100 µM.
In the case of `O=C1c2ccccc2C(=O)c2c(NC3CCCCC3)ccc(Nc3ccc(S(=O)(=O)O)cc3)c21`, the GI50 was inactive: 63.2 µM.
Regarding `O=C1c2cc([N+](=O)[O-])ccc2-c2ccc3c4ccc5c6c(ccc(c7ccc1c2c73)c64)C(=O)c1cc([N+](=O)[O-])ccc1-5`, the GI50 is inactive: > 100 µM.
For `Nc1nc(-c2ccccc2)c(CC(=O)O)s1`, the GI50 was inactive: > 100 µM.
As for `O=C(Cn1ccnc1[N+](=O)[O-])N(CCO)CCO`, the GI50 is inactive: > 250 µM.
Consider `CCOC(=O)C(C(=O)COC(C)(C)C)[C@@H]1C=C[C@H](OC(C)=O)C1` (stereo partly drawn), for which the GI50 was inactive: > 100 µM.
In the case of `CCCC[S+]([O-])CC(CO)NC(=O)/C=C/c1c(C)[nH]c(=O)[nH]c1=O` (stereo not drawn), the GI50 is inactive: 4.12 µM.
Regarding `COC(=O)NC1C(C)OC(OC2C/C=C(/C)C3C=CC4C(OC5CC(OC6CCC(OC7CC(O)C(OC8CCC(O)C(C)O8)C(C)O7)C(C)O6)C(OC(C)=O)C(C)O5)C(C)CC(C)C4C3(C)/C(O)=C3/C(=O)OC4(CC(C=O)=CC(O)C4/C=C\2C)C3=O)CC1(C)[N+](=O)[O-]` (stereo not drawn), the GI50 is inactive: 1.92 µM.
As for `O=c1[nH]c2ccccc2c2nc3ccccc3n12`, the GI50 is inactive: 44 µM.
Take `c1ccc(C(/C(=N/c2ccc(Cc3ccc(/N=C(\C(c4ccccc4)c4ccccc4)N4CC4)cc3)cc2)N2CC2)c2ccccc2)cc1`: the GI50 is inactive: 17.9 µM.
Regarding `CCN(CC)C(=O)Cn1c(C)cc2ccccc21`, the GI50 is inactive: > 100 µM.
Consider `C=C(C)[C@@]1(OC(=O)c2cc([N+](=O)[O-])cc([N+](=O)[O-])c2)C[C@@H]2CCCC[C@@H]21`, for which the GI50 is inactive: > 100 µM.
Consider `CCOc1ccc(N2C(=O)/C(=C/c3ccc(N(CCC#N)CCC#N)cc3)N=C2c2cc([N+](=O)[O-])ccc2Cl)cc1`, for which the GI50 was inactive: 83.9 µM.
As for `COc1cc([C@@H]2c3cc4c(cc3[C@@H](c3c(O)cc(O)c5c3O[C@H](c3ccc(O)c(O)c3)[C@H](OC(=O)c3cc(O)c(O)c(O)c3)C5)[C@H]3COC(=O)[C@H]23)OCO4)cc(OC)c1OC`, the GI50 is inactive: 36.2 µM.
Next, `CSC(=S)NN=C1CCCC1.CSC(=S)NN=C1CCCC1.[Zn+2]`: inactive: 16.2 µM.
Consider `CC(=O)O[C@H]1[C@H](OC(C)=O)[C@@H](CN=[N+]=[N-])OCO[C@@H]1CN=[N+]=[N-]`, for which the GI50 was inactive: > 100 µM.
As to `O=C1NCN(c2ccccc2)C12CCN(CCc1ccc3[nH]c(=S)[nH]c3c1)CC2`, the GI50 was inactive: 38.7 µM.
Consider `COc1c(C)c(OC)c(C(=O)CC(C)C)c(OC)c1C`, for which the GI50 is inactive: > 100 µM.
In the case of `CCCCc1nccc2c(C)c3[nH]c4ccccc4c3cc12`, the GI50 was inactive: 4.88 µM.
With `CCOC(=O)C(=O)Nc1ccccc1C(C)C`, the GI50 is inactive: > 100 µM.
For the compound `CC(C)c1cc2c(O)c(c1)Cc1cc(C(C)C)cc(c1O)Cc1cc(C(C)C)cc(c1O)Cc1cc(C(C)C)cc(c1O)Cc1cc(C(C)C)cc(c1O)Cc1cc(C(C)C)cc(c1O)C2`, the GI50 is inactive: > 100 µM.
On to `CC(C)C(Nc1c2ccccc2[n+](C)c2ccccc12)C(=O)O` (stereo not drawn), for which the GI50 was inactive: > 100 µM.
The value for `Cc1ccccc1NC(=O)C(=O)Cc1cnc2ccccc2n1` was inactive: > 100 µM; that for `CC(=O)NC(Cc1ccc(O)cc1)C(=O)O` (stereo not drawn) was inactive: > 100 µM; that for `CC(C)(C)c1cc([Si](C)(C)C)c(C#N)c([Si](C)(C)C)c1` was inactive: > 100 µM.
The value for `CC1(C)OC(=O)C(Cc2ccccc2)(Cc2ccccc2)C(=O)O1` was inactive: > 100 µM; that for `Cc1ccc2c(c1)C(=S)N1CSCC1c1nncn1-2` (stereo not drawn) was inactive: > 100 µM.
Next, `COc1ccc2c(CCNS(=O)(=O)c3ccccc3)c(C(C)=O)[nH]c2c1[N+](=O)[O-]`: inactive: > 100 µM; `CCCCCCCCCCCCCP(=O)(OC)OC`: inactive: 16.3 µM; `COc1ccc2c(c1)C(N)=C(c1ccccc1)C2=O`: inactive: > 100 µM.
Regarding `CCNC(=O)O/N=C1\CCC2[C@@H]3CC=C4C[C@@H](OC(=O)NCC)CC[C@]4(C)C3CC[C@]12C` (stereo partly drawn), the GI50 was inactive: 2.62 µM.
In the case of `CCCCCCCCCCOc1ccc(/N=N/c2nnc(-c3ccc(OCCCCC)cc3)s2)cc1`, the GI50 was inactive: > 100 µM.
`Nc1cc2nc(-c3ccccc3)cn2cn1`: the GI50 is inactive: 37.5 µM.
With `NS(=O)(=O)c1ccc(NC(=O)c2cccc3c(Nc4ccc(S(N)(=O)=O)cc4)c4ccccc4nc23)cc1`, the GI50 was inactive: 32.8 µM.
For the compound `COC(=O)[C@@H]1CC(C(C[N+](=O)[O-])c2ccc(O[Si](C)(C)C(C)(C)C)cc2)C(=O)N1C(=O)OC(C)(C)C` (stereo partly drawn), the GI50 is inactive: > 100 µM.
The value for `C=C1CN2CC(=C)CN(C1)CS(=O)(=O)N1CC(=C)CN(CC(=C)C1)S(=O)(=O)N1CC(=C)CN(CC(=C)C1)S(=O)(=O)C2` was inactive: 27.7 µM.
The value for `CC(C)OP(=O)(OC(C)C)/C(=N/Nc1ccc([N+](=O)[O-])cc1)Nc1ccccc1` was inactive: 54.1 µM.
For `CNC(=O)OCCN1c2ccccc2Sc2ccccc21`, the GI50 was inactive: > 100 µM.
With `ClCCN(CC#CCCCC#CCN(CCCl)CCCl)CCCl`, the GI50 is inactive: 16.9 µM.
The value for `CC(C)(O)C1OCC(C2CCC3(C)C4=CCC5C(C)(C)C(O)CCC5(C)C4CCC23C)CC1O` (stereo not drawn) was inactive: 14.6 µM; that for `COc1ccc(-n2c(C)nc3ccc(NC4OCC(OC(C)=O)C(OC(C)=O)C4OC(C)=O)cc3c2=O)cc1` (stereo not drawn) was inactive: > 100 µM; that for `CCOC(=O)C=C1CCC2(CC1)OCCO2` was inactive: > 100 µM.
Turning to `COc1ccc(/C(Cl)=C(\C=O)c2ccc(Cl)c(Cl)c2)cc1OC`, the GI50 is inactive: 5.31 µM.
Turning to `CCO[C@]12CCC[C@H]1[C@@H]1C(=O)c3ccccc3C(=O)C1=C(C)O2`, the GI50 was inactive: > 100 µM.
For the compound `C/C(=N\Nc1nc2cc(F)ccc2s1)c1ccccn1`, the concentration for 50% growth inhibition (GI50) is active: 0.0548 µM.
On to `CC(=O)NNc1nc(C)c(C(/C=C/c2ccc(Cl)cc2)=N/NC(=S)NN)s1`, for which the GI50 was inactive: > 100 µM.
As for `COc1ccccc1NC(=S)N/N=C(/c1ccccc1)c1ccccn1`, the concentration for 50% growth inhibition (GI50) was active: 0.0267 µM.
The value for `O=C1c2ccccc2C(=O)N1CC(O)COc1cccc2ccccc12` (stereo not drawn) was inactive: > 100 µM.
Next, `CSc1nc(-c2cc3c(c(SC)n2)CCCCC3)cc2c1CCCCC2`: inactive: > 100 µM.
`CCOC(=O)CN(CC)C(=O)NC12CC3CC(CC(C3)C1)C2`: the GI50 is inactive: 230 µM.
Turning to `O=C(c1ccc(Br)cc1)n1c2ccc(Br)cc2c2nc3ccccc3nc21`, the GI50 was inactive: > 100 µM.
For the compound `COc1cc(CNC2=NCCC2)cc(OC)c1OC`, the GI50 was inactive: > 100 µM.
For `C/N=N/N(C)C(=O)NC`, the GI50 was inactive: > 100 µM.
Turning to `NC(Cc1nnn[nH]1)C(=O)O` (stereo not drawn), the GI50 is inactive: > 100 µM.
Consider `N=c1oc2ccc3ccccc3c2cc1C(N)=O`, for which the GI50 was inactive: 32.5 µM.
As to `O=C(Cn1c2ccc(Br)cc2c2nc3ccccc3nc21)NC1CCCCC1`, the GI50 is inactive: > 100 µM.
Next, `Nc1ncnc2oc(C3OC(COC(=O)c4ccccc4)C(OC(=O)c4ccccc4)C3OC(=O)c3ccccc3)nc12` (stereo not drawn): inactive: 34.7 µM; `COc1cc(C(C)(C)C)c(OC(=O)/C=C/C(=O)O/C=C/[N+](=O)[O-])c(C(C)(C)C)c1`: inactive: > 100 µM.
Next, `C[n+]1ccccc1/C=C/c1ccc2c(c1)OCO2`: inactive: > 10 µM.
As to `Cc1ccc2c(=O)c(-c3nnc(N)s3)c[nH]c2n1`, the GI50 was inactive: > 100 µM.
Consider `O=C(O)C(O)C(O)C(O)C(O)CO.[Ba+2]` (stereo not drawn), for which the GI50 is inactive: > 100 µM.
Regarding `COc1cc2c(cc1OCCCC(=O)Nc1cc(C(=O)Nc3cc(C(=O)NCCCN(C)C)n(C)n3)n(C)n1)N=CC1CCCN1C2=O` (stereo not drawn), the GI50 is inactive: > 100 µM.
`N=c1c2c(=S)n(-c3ccccc3)c(=S)n(-c3ccccc3)c2nc(SCCN2CCOCC2)n1-c1ccccc1`: the GI50 was inactive: 2.36 µM.
For the compound `CC(C)(c1ccc(Oc2ccc(C#N)c(C#N)c2)cc1)c1ccc(Oc2ccc(C#N)c(C#N)c2)cc1`, the GI50 is inactive: > 10 µM.
`CC1(C)CC2(CC(C)(C)N1O)NC(=O)OC2=O`: the GI50 is inactive: > 100 µM.
Take `NCCN1CCCCCc2ccccc21`: the GI50 is inactive: > 10 µM.
As to `Cc1ccc(/C=C2\CCCC\C2=N\O)cc1`, the GI50 was inactive: 90.2 µM.
The value for `COc1cc2c(oc(=O)c3c4oc([Si](C)(C)C)cc4cc(OC)c23)c2cccc(O)c12` was inactive: > 100 µM.
The value for `CC1(C)CC23C(=O)N(c4ccccc4)C(Nc4ccccc4)=NC2=CC(C#N)=C(C#N)C3O1` (stereo not drawn) was inactive: 99.3 µM; that for `CN1CCc2c(sc3nc(Nc4ccccc4)n(N)c(=O)c23)C1` was inactive: > 100 µM.
With `Nc1ccccc1/N=N/c1c(S(=O)(=O)O)cc2cc(S(=O)(=O)O)cc(O)c2c1O`, the GI50 was inactive: > 100 µM.
Next, `O=C(O)CO/N=C1/C(=C2/C(=O)Nc3ccccc32)Nc2ccccc21`: inactive: 30.5 µM.
As to `C=C1C(=O)OC2C3C(=C)[C@@H](OC(C)=O)CC3C(C)=CC(OC(=O)C(C)(O)C(C)OC(C)=O)[C@@H]12` (stereo partly drawn), the GI50 was inactive: 36.1 µM.
`COc1cc(-c2c3c(cc4c2OCO4)[C@@H](Nc2ccc4c(c2)Cc2cc(N[C@@H]5c6cc7c(cc6C(c6cc(OC)c(O)c(OC)c6)[C@H]6C(=O)OC[C@H]56)OCO7)ccc2-4)[C@H]2COC(=O)[C@@H]2C3)cc(OC)c1O` (stereo partly drawn): the GI50 is inactive: 37.1 µM.
Consider `C=C(C)C(CC=C(C)C)Cc1c(O)cc(OC)c2c1OC(c1ccc(O)cc1O)C(O)C2=O` (stereo not drawn), for which the GI50 was inactive: 17.6 µM.
Regarding `O=C(O)CNS(=O)(=O)c1ccc(NC(=O)Nc2ccccc2)cc1`, the GI50 was inactive: > 100 µM.
As for `COc1ccc(Nc2nc(N)c(C(=O)c3ccc(Cl)cc3)s2)cc1`, the 50% growth inhibitory concentration (GI50) is active: 0.206 µM.
For `CC(NC(=O)/C(C#N)=C/c1ccc2[nH]ccc2c1)c1ccccc1` (stereo not drawn), the GI50 is inactive: 22.5 µM.
